Experimental data reported in patent publication US20190367516A1 (Bayer Pharma Aktiengesellschaft, priority 2015, published 2019).

Target: T1, human M2 receptor (Homo sapiens, UniProt P08172)
T1 sequence (P08172 1-466): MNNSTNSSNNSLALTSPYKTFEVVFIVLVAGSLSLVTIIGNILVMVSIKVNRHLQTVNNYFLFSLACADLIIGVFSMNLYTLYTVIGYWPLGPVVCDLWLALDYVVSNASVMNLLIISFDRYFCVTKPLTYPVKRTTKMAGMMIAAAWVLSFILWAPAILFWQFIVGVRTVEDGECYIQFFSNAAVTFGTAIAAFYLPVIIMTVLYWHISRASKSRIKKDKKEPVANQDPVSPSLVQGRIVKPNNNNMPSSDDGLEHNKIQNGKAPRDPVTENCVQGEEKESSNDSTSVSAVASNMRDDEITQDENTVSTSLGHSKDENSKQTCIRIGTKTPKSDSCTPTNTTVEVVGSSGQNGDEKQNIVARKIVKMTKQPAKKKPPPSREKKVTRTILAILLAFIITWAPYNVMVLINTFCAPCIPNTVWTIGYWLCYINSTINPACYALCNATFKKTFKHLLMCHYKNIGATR
Settings: boosting of the acetylcholine effect at an EC20 acetylcholine concentration; for Emax: read-out: Efficiency, M2-GIRK1/4 activation test; for Efficiency: M2-GIRK1/4 activation test

Row | Structure (SMILES) | Emax [%] | Efficiency [%]
1 | CC[C@@H](NC(=O)c1cn(-c2ccc(F)cc2F)c2nc(N3CCC(C)(OC)C3=O)ccc2c1=O)C(F)(F)F (single isomer, unassigned) [Example 199] |  | 96.0
2 | O=C(NC12CC3CC(CC(C3)C1)C2)c1cn(-c2ccc(F)cc2F)c2nc(N3CC(F)(F)C(F)(F)C3)ccc2c1=O [Example 77, 1-(2,4-Difluorophenyl)-4-oxo-7-(3,3,4,4-tetrafluoropyrrolidin-1-yl)-N-(tricyclo[3.3.1.1^3,7]dec-1-yl)-1,4-dihydro-1,8-naphthyridine-3-carboxamide] | 100 | 
3 | CN(C)c1ccc2c(=O)c(C(=O)NC34CC5CC(C3)C(F)(F)C(C5)C4)cn(-c3ccc(F)cc3Cl)c2n1 [Example 40, 1-(2-Chloro-4-fluorophenyl)-N-(4,4-difluorotricyclo[3.3.1.1^3,7]dec-1-yl)-7-(dimethylamino)-4-oxo-1,4-dihydro-1,8-naphthyridine-3-carboxamide] | 94.2 | 
4 | O=C(NC12CC3CC(CC(C3)C1)C2)c1cn(-c2ccc(F)cc2F)c2nc(N3CCC(F)CC3)ccc2c1=O [Example 5, 1-(2,4-Difluorophenyl)-7-(4-fluoropiperidin-1-yl)-4-oxo-N-(tricyclo[3.3.1.1^3,7]dec-1-yl)-1,4-dihydro-1,8-naphthyridine-3-carboxamide] | 98.7 | 
5 | O=C(NC12CC3CC(CC(C3)C1)C2)c1cn(-c2ccc(F)cc2F)c2nc(N3CCOC(CO)C3)ccc2c1=O (racemic) [Example 118, rac-1-(2,4-Difluorophenyl)-7-[2-(hydroxymethyl)morpholin-4-yl]-4-oxo-N-(tricyclo[3.3.1.1^3,7]dec-1-yl)-1,4-dihydro-1,8-naphthyridine-3-carboxamide] | 91 | 
6 | CC[C@@H](NC(=O)c1cn(-c2ccc(F)cc2F)c2nc(N3CCC(C)(O)C3=O)ccc2c1=O)C(F)(F)F (single isomer, unassigned) [Example 196] |  | 98.0
7 | CCCC(NC(=O)c1cn(-c2ccc(F)cc2F)c2nc(N(C)CCF)ccc2c1=O)C(F)(F)F (stereo not drawn) [Example 106, 1-(2,4-Difluorophenyl)-7-[(2-fluoroethyl)(methyl)amino]-4-oxo-N-[1,1,1-trifluoropentan-2-yl]-1,4-dihydro-1,8-naphthyridine-3-carboxamide] | 100 | 
8 | CC(C)C(NC(=O)c1cn(-c2ccc(F)cc2F)c2nc(N(C)C)ccc2c1=O)C(F)(F)F (racemic) [Example 150, rac-1-(2,4-Difluorophenyl)-7-(dimethylamino)-4-oxo-N-(1,1,1-trifluoro-3-methylbutan-2-yl)-1,4-dihydro-1,8-naphthyridine-3-carboxamide] | 90.5 | 
9 | O=C(NC(C(F)(F)F)C(F)(F)F)c1cn(-c2ccc(F)cc2F)c2nc(NCC(F)F)ccc2c1=O [Example 126, 7-[(2,2-Difluoroethyl)amino]-1-(2,4-difluorophenyl)-N-(1,1,1,3,3,3-hexafluoropropan-2-yl)-4-oxo-1,4-dihydro-1,8-naphthyridine-3-carboxamide] | 81 | 
10 | CN(c1ccc2c(=O)c(C(=O)NC34CC5CC(CC(C5)C3)C4)cn(-c3ccc(F)cc3F)c2n1)S(C)(=O)=O [Example 169] | 79.5 | 
11 | CC[C@@H](NC(=O)c1cn(-c2ccc(F)cc2F)c2nc(N3CC(F)C3)ccc2c1=O)C(F)(F)F [Example 32, 1-(2,4-Difluorophenyl)-7-(3-fluoroazetidin-1-yl)-4-oxo-N-[(2R)-1,1,1-trifluorobutan-2-yl]-1,4-dihydro-1,8-naphthyridine-3-carboxamide] | 93.5 | 
12 | O=C(Nc1c(Cl)cccc1Cl)c1cn(-c2ccc(F)cc2F)c2nc(N3C[C@@H](O)CC3=O)ccc2c1=O [Example 201, N-(2,6-Dichlorophenyl)-1-(2,4-difluorophenyl)-7-[(4S)-4-hydroxy-2-oxopyrrolidin-1-yl]-4-oxo-1,4-dihydro-1,8-naphthyridine-3-carboxamide] | 94.8 | 
13 | CN(CC(F)F)c1ccc2c(=O)c(C(=O)NC(C(F)(F)F)C(F)(F)F)cn(-c3ccc(F)cc3F)c2n1 [Example 115, 7-[(2,2-Difluoroethyl)(methyl)amino]-1-(2,4-difluorophenyl)-N-[1,1,1,3,3,3-hexafluoropropan-2-yl)-4-oxo-1,4-dihydro-1,8-naphthyridine-3-carboxamide] | 91 | 
14 | O=C(NC12CC3CC(CC(C3)C1)C2)c1cn(-c2ccc(F)cc2F)c2nc(N3CCC(F)(F)C3)ccc2c1=O [Example 73, 1-(2,4-Difluorophenyl)-7-(3,3-difluoropyrrolidin-1-yl)-4-oxo-N-(tricyclo[3.3.1.1^3,7]dec-1-yl)-1,4-dihydro-1,8-naphthyridine-3-carboxamide] | 91.9 | 
15 | O=C(NC12CC3CC(CC(C3)C1)C2)c1cn(-c2ccc(F)cc2F)c2nc(N3CCCCC3)ccc2c1=O [Example 8, 1-(2,4-Difluorophenyl)-4-oxo-7-(piperidin-1-yl)-N-(tricyclo[3.3.1.1^3,7]dec-1-yl)-1,4-dihydro-1,8-naphthyridine-3-carboxamide] | 98 | 
16 | O=C(NC12CC3CC(CC(C3)C1)C2)c1cn(-c2ccc(F)cc2F)c2nc(N3CCCC[C@H]3CO)ccc2c1=O [Example 15, 1-(2,4-Difluorophenyl)-7-[(2S)-2-(hydroxymethyl)piperidin-1-yl]-4-oxo-N-(tricyclo[3.3.1.1^3,7]dec-1-yl)-1,4-dihydro-1,8-naphthyridine-3-carboxamide] | 90.5 | 

Results, then the compound that gave them:

Row | Emax [%] | Efficiency [%] | Structure (SMILES)
17 | 100 |  | CC[C@@H](NC(=O)c1cn(-c2c(F)cccc2F)c2nc(N3CCC(C)(O)C3)ccc2c1=O)C(F)(F)F (mixture of isomers) [Example 276, 1-(2,6-Difluorophenyl)-7-[3-hydroxy-3-methylpyrrolidin-1-yl]-4-oxo-N-[(2R)-1,1,1-trifluorobutan-2-yl]-1,4-dihydro-1,8-naphthyridine-3-carboxamide]
18 | 100 |  | O=C(NC(c1c(F)cccc1F)C(F)(F)F)c1cn(-c2ccc(F)cc2F)c2nc(N3CCC(O)CC3=O)ccc2c1=O (single isomer, unassigned) [Example 253, 1-(2,4-Difluorophenyl)-N-[1-(2,6-difluorophenyl)-2,2,2-trifluoroethyl]-7-[4-hydroxy-2-oxopiperidin-1-yl]-4-oxo-1,4-dihydro-1,8-naphthyridine-3-carboxamide]
19 | 97 |  | CC[C@H](NC(=O)c1cn(-c2ccc(F)cc2F)c2nc(N3CCC(O)C3)ccc2c1=O)C(F)(F)F (single isomer, unassigned) [Example 219]
20 |  | 100.0 | CC[C@@H](NC(=O)c1cn(-c2ccc(F)cc2F)c2nc(N3CCC(O)C3=O)ccc2c1=O)C(F)(F)F (single isomer, unassigned) [Example 226]
21 | 100 |  | O=C(NC12CC(C1)C2)c1cn(-c2c(F)cc(F)cc2F)c2nc(N3C[C@@H](O)[C@H](O)C3)ccc2c1=O [Example 366, N-(Bicyclo[1.1.1]pent-1-yl)-7-[(3R,4R)-3,4-dihydroxypyrrolidin-1-yl]-4-oxo-1-(2,4,6-trifluorophenyl)-1,4-dihydro-1,8-naphthyridine-3-carboxamide]
22 | 92 |  | CC[C@H](NC(=O)c1cn(-c2c(F)cc(F)cc2Cl)c2nc(N3CCC(C)(C)C3=O)ccc2c1=O)C(F)(F)F [Example 336, 1-(2-Chloro-4,6-difluorophenyl)-7-(3,3-dimethyl-2-oxopyrrolidin-1-yl)-4-oxo-N-[(2S)-1,1,1-trifluorobutan-2-yl]-1,4-dihydro-1,8-naphthyridine-3-carboxamide]
23 | 91 |  | O=C(N[C@H](C1CC1)C(F)(F)F)c1cn(-c2ccc(F)cc2F)c2nc(N3C[C@@H](O)CC3=O)ccc2c1=O [Example 271, N-[(1R)-1-Cyclopropyl-2,2,2-trifluoroethyl]-1-(2,4-difluorophenyl)-7-[(4S)-4-hydroxy-2-oxopyrrolidin-1-yl]-4-oxo-1,4-dihydro-1,8-naphthyridine-3-carboxamide]
24 |  | 95.5 | O=C(NC(c1c(F)cccc1F)C(F)(F)F)c1cn(-c2ccc(F)cc2F)c2nc(N3CCCC(O)C3=O)ccc2c1=O (single isomer, unassigned) [Example 250, 1-(2,4-Difluorophenyl)-N-[1-(2,6-difluorophenyl)-2,2,2-trifluoroethyl]-7-[3-hydroxy-2-oxopiperidin-1-yl]-4-oxo-1,4-dihydro-1,8-naphthyridine-3-carboxamide]
25 | 94.8 |  | O=C(NC(c1ccccc1Cl)C(F)(F)F)c1cn(-c2ccccc2F)c2nc(N3CCC(O)C3=O)ccc2c1=O (racemic) [Example 287, N-[1-(2-Chlorophenyl)-2,2,2-trifluoroethyl]-1-(2-fluorophenyl)-7-[3-hydroxy-2-oxopyrrolidin-1-yl]-4-oxo-1,4-dihydro-1,8-naphthyridine-3-carboxamide]
26 | 97.5 |  | CC[C@@H](NC(=O)c1cn(-c2ccc(F)cc2F)c2nc(N3CCC(O)C3=O)ccc2c1=O)C(F)(F)F (mixture of isomers) [Example 224, 1-(2,4-Difluorophenyl)-7-[3-hydroxy-2-oxopyrrolidin-1-yl]-4-oxo-N-[(2R)-1,1,1-trifluorobutan-2-yl]-1,4-dihydro-1,8-naphthyridine-3-carboxamide]
27 | 88 |  | C[C@H](NC(=O)c1cn(-c2c(F)cc(F)cc2F)c2nc(N3CC4CC4(O)C3)ccc2c1=O)C(F)(F)F (single isomer, unassigned) [Example 317]
